Test results from patent publication US20240184137A1, “CONTACT LENSES AND METHODS OF MAKING CONTACT LENSES” (University of Florida Research Foundation, Inc., priority 2021, published 2024).

Experiments:
[1] = Stability of vitamin E nanobarriers in lenses, aqueous solubility of vitamin E; assay type: physicochemical
[2] = Dexamethasone phosphate release from ACUVUE OASYS lenses loaded with 30% VE; assay type: physicochemical; conditions: 30% VE lenses soaked in 20 mg/ml
From the text: The physician will have the option of replacing the lens with another lens after 7 days. […] An alternative is to replace levofloxacin with moxifloxacin which is a commonly used 4th generation fluoroquinolone. Additionally, bromfenac will be incorporated as a replacement for ketorolac. Thus, the triple drug combination will be Moxifloxacin, Dexamethasone, Bromfenac, or Moxifloxacin, Dexamethasone Phosphate, Bromfenac, or Moxifloxacin, Dexamethasone, Ketorolac or Moxifloxacin, Dexamethasone Phosphate, Ketorolac. Any of these drugs can be substituted with drugs in the same general class. Additionally, any one of two of these drugs could be loaded instead of all three. For example, just a steroid and NSAID could be loaded and the antibiotic could be administered as an intracameral injection. […] For example, moxifloxacin hydrochloride, ketorolac tromethamine, bromfenac sodium.

[3] = assay type: physicochemical
Method: FIG. 6 illustrates a graph regarding the delivery of bromfenac by loading the drug in Acuvuce Oasys with 20% vitamin E lenses in a 3 mL solution of bromfenac at 0.5, 1, 2 and 10 mg/mL.
Delivery of bromfenac was tested by loading the drug in Acuvuce Oasys with 20% vitamin E lenses in a 3 mL solution of bromfenac at 0.5, 1, 2 and 10 mg/mL (as shown in FIG. 6). […] The release duration can be increased to about 7-days by increasing vitamin E loading in lens to about 30% because the release duration increases as square of the vitamin E loading. The high partition coefficient means that a concentration of just 1 mg/mL in loading solution will be adequate to load about 350 μg of drug.

[4] = assumed to be equal to that for timolol; cited from earlier work
[5] = In vitro triumvirate drug release from vitamin-E modified ACUVUE OASYS lenses in PBS; assay type: physicochemical
[6] = in vivo; cited from earlier work
[7] = cited from earlier work

Structure (SMILES): Cc1c(C)c2c(c(C)c1O)CCC(C)(CCCC(C)CCCC(C)CCCC(C)C)O2 (racemic) [vitamin E, DL-alpha tocopherol]
- Solubility in aqueous solutions [1]: negligible

Structure (SMILES): C[C@@H]1C[C@H]2[C@@H]3CCC4=CC(=O)C=C[C@]4(C)[C@@]3(F)[C@@H](O)C[C@]2(C)[C@@]1(O)C(=O)COP(=O)(O)O [DXP, dexamethasone sodium phosphate]
- Expected amount of drug released [2]: about 750 μg
- Expected release time [2]: 40 days

Structure (SMILES): Nc1c(CC(=O)O)cccc1C(=O)c1ccc(Br)cc1 [bromfenac]
- Partition coefficient (ratio of drug concentration in lens and solution) [3]: 11.65±1.28
- Amount of drug loaded ([3]; 1 mg/mL in loading solution): about 350 μg
- Release duration ([3]; Acuvue Oasys with 20% vitamin E, 3 mL buffer): about 3 days
- Release duration on increasing vitamin E loading ([3]; vitamin E loading about 30%): about 7 days

Structure (SMILES): C[C@@H]1C[C@H]2[C@@H]3CCC4=CC(=O)C=C[C@]4(C)[C@@]3(F)[C@@H](O)C[C@]2(C)[C@@]1(O)C(=O)CO [dexamethasone]
- Corneal permeability [4]: 12 ×10⁻⁶ cm/s

Structure (SMILES): O=C(c1ccccc1)c1ccc2n1CCC2C(=O)O (stereo not shown) [ketorolac]
- Release duration ([5]; ACUVUE OASYS lenses with 30% vitamin E, release in PBS): 200 h
- Release duration ([5]; control lens without vitamin E): a few hours

Structure (SMILES): COc1c(N2C[C@@H]3CCCN[C@@H]3C2)c(F)cc2c(=O)c(C(=O)O)cn(C3CC3)c12 [moxifloxacin]
- Mean aqueous concentration [6]: 1.745 µg/mL

Structure (SMILES): Cc1ccc(=O)n(-c2ccccc2)c1 [pirfenidone]
- Healing of cornea after an alkaline burn ([7]; contact lenses loaded with drug): can lead to healing of cornea
- Aqueous humor levels, delivery via contacts compared to eye drops ([7]; dose 2.5-fold lower in contacts): much higher

Where two headings read alike, the source gives them in different places.
